# Experimental data taken from ChEMBL document CHEMBL4888484, “Replenishing the malaria drug discovery pipeline: Screening and hit evaluation of the MMV Hit Generation Library 1 (HGL1) against asexual blood stage Plasmodium falciparum ,using a nano luciferase reporter read-out” (2022).
# In all, about 150,000 compounds went through this assay and about 540 (0.36%) showed an effect of 50% or more. The list shows a part of the results.
# Test system: Plasmodium falciparum
# Test: Primary screen in NF54 nanoGlo assay, in single point, at 2uM, 72h; a lower Z score goes with more inhibition
# Format: functional, Erythrocyte
# Conditions: timepoint 72 hour
Structure (SMILES),% Inhibition [%],Z score
CCn1cc(-c2cc(C(=O)N3CCC[C@H](C)C3)c3ccc(C)c(C)c3n2)cn1,3,-0.42
OC1(C(F)(F)F)C2CCCCC2=NN1c1nc(-c2ccncc2)cs1 (stereo unspecified),-35,4.16
O=C1CCCN1c1cc(CNS(=O)(=O)c2ccc(-n3cccn3)cc2)ccn1,-23,3.52
CS(=O)(=O)NCc1ccc(C(=O)NC[C@H]2CCC[C@@H](CO)C2)o1,-33,3.91
CC(C)(C)OC(=O)NCCC[C@H](NCCCO)c1ccccc1,1,-0.12
CCN(Cc1ccc(OC)cc1)Cc1cc(=O)c2cc(F)ccc2[nH]1,-12,2.04
CCn1c(CN2CCCN(C(N)=O)CC2)nc2cc(F)ccc21,-3,0.61
Cc1nc(C(=O)N2CC[C@]34C(=O)N(Cc5cn(nn5)CCCOc5cccc(c5)[C@H]23)c2ccccc24)c[nH]1,-9,1.74
O=C(CCC(F)(F)F)N1CCN(Cc2nnc[nH]2)CC1,5,-1.08
CC#CCN1CCOC(C(C)NC(=O)OC(C)(C)C)C1 (stereo unspecified),-5,0.96
COCCNC(=O)C[C@H](c1ccc(OCc2ccccc2)c(OC)c1)c1cn(Cc2ccc(F)cc2)c2ccccc12,-12,1.54
O=C(Nc1cccc(Br)c1)N1CCN(c2nc3cc(F)ccc3n3cccc23)CC1,3,-0.59
CC(=O)NCCCN(C)c1ncccc1-c1nc(C)no1,-12,2.21
CCOC(=O)[C@H]1CCCC[C@H]1NS(=O)(=O)C1CC1,-12,2.27
Cn1c(=O)c(-c2nc(-c3ccc(Br)cc3)no2)c(O)c2ccc(F)cc21,-10,1.32
CCOC(=O)c1noc2nc(C)nc(NC(C)C)c12,-10,1.82
Cc1cccnc1[C@H](C)NC(=O)c1coc(COc2cccc3cccnc23)n1,-13,1.65
CC[C@H](NC(=O)c1cc(Cn2cccn2)on1)c1nnc[nH]1,-2,0.39
CCCc1noc(Cn2cncc(Br)c2=O)n1,4,-0.62
CC(C)C(=O)c1ccc2c(c1NC(=O)Cc1ccccc1)OCCO2,-9,0.89
Cc1nc(C(=O)N2CCC(COc3cc(Cl)cc(Cl)c3)CC2)c[nH]1,-12,2.23
Cc1c(CNC(=O)c2cc3[nH]cnc3cc2F)cnn1C,-10,1.05
CC1CCC(C(C)C)C(OC(=O)Nc2ccccc2)C1 (stereo unspecified),1,-0.21
Cc1csc(Nc2ccc(NC(=O)CCc3cscn3)cc2)n1,-15,2.19
CNc1nc(C)cc(-c2ccnc3c2ccn3C)n1,-5,0.6
O=C(Nc1ccc2c(c1)CCC2)[C@@H]1COc2ccccc2O1,-6,0.9
COCc1noc(CCC2CN(C(=O)OC(C)(C)C)C2)n1,-8,1.08

Structure (SMILES),% Inhibition [%],Z score
CCn1nc(C)cc1C(=O)O[C@@H](C)c1nc2ccccc2n1C,-7,1.02
CCc1c(C(=O)N2CC[C@H](n3cc(C)cn3)C2)cnn1CCC(C)C,-11,1.42
COc1ccc(-n2cccn2)c(CN2CCC[C@H](c3nc(C)n[nH]3)C2)c1,3,-0.49
Cc1ccc(-n2nnnc2CNS(=O)(=O)c2cccnc2)cc1,-11,2.23
CN(C)[C@H]1CN(c2nc3c(cc2C(=O)O)CCC3)C[C@@H]1C1CC1,0,0.01
Cc1noc(-c2cccnc2N2CC[C@H](N3CCCC3)C2)n1,-1,0.17
COC(=O)[C@@H](NCc1ccc(C(N)=O)cc1)C(C)(C)C,-2,0.25
Cc1nc(C)c(COc2ccc(-n3cncn3)cc2)s1,-5,0.61
COc1cccc(CNC[C@H](c2ccnn2C)C(C)C)n1,-6,0.73
CCOC(=O)C1CCN(C(=O)CN2C(=O)N[C@](C)(c3ccc(F)cc3F)C2=O)CC1,-5,0.82
NC(=O)[C@@H]1Cc2ccccc2N1Cc1nc(CC(F)(F)F)no1,26,-2.96
COc1ccc(-c2cc(N)nc(N3CCCC3)n2)cc1F,-5,0.71
Cc1cc(OCC(=O)Nc2ccc(N(C)C)nc2)no1,-8,1.07
Cc1cccc(OCc2nc(C)c(C(=O)NC3CCCCC3)s2)c1,0,0.01
COc1ccc(-c2cnc3ncnn3c2N2CCCN(S(=O)(=O)c3cc(F)cc(F)c3)CC2)cc1OC,-9,0.91
CCc1cccc(NC(=O)c2cn(Cc3ccc(NC(=O)c4ccc(C)c(C)c4)cc3)cn2)c1,-16,1.9
Cc1ccc(-n2nnnc2-c2cnc3cc4c(cc3c2C)OCO4)cc1,34,-4.36
CCOc1ccccc1N1C[C@@H](c2nc3ccccc3n2CCN2CCOCC2)CC1=O,-16,1.51
Cc1cc(Cc2ccc(S(=O)(=O)N3CCN(c4ccccc4)CC3)cc2)c(=O)[nH]n1,4,-0.37
CCc1ccc(-c2cc3c(=O)n(CC(=O)N4CCCC4)ncn3n2)cc1,-14,1.2
Cc1ncn(CC(=O)N2CC(n3cc(-c4ccccc4)nn3)C2)c(=O)c1C,-19,2.45
O=C(O)c1cn(-c2nccs2)c2c(F)c(Nc3ccccc3)c(F)cc2c1=O,33,-3.7
Cc1ccccc1OCCOc1ccc(Oc2nc(N(C)C)nc(N3CCCC3)n2)nn1,-16,1.91
O=C(c1cc2occc2c(Nc2ccc(F)cc2)n1)N1CCN(C(=O)c2ccco2)CC1,-19,1.87
CC(=O)N1CCN(Cc2ccccc2NC(=O)Cc2ccc(C)nc2)CC1,-6,1.11
Cc1nccn1C[C@H]1CCCN(C(=O)CCc2nc3ccccc3s2)C1,-6,1.14
